{
  "source": "PubChem BioAssay AID686979",
  "about": "(National Center for Advancing Translational Sciences (NCATS), 2013)",
  "note": "Out of some 420,000 compounds screened, about 50,000 (12%) were called active. Inconclusive results, whose numbers are uncertain, are shown with a selection of clear calls. Calls follow the shape of the dose curve; as a rule, active = well fitted inhibition curve with a large enough effect; inconclusive = small, poorly fitted or top-dose-only effect; inactive = flat fitted curve, though single readings scatter. Potencies of inconclusive entries are left out as doubtful fits. Potency is read from the fitted curve at half-maximal effect; tags tell the direction and shape of the fitted curve.",
  "data": [
    {"test": "qHTS for Inhibitors of human tyrosyl-DNA phosphodiesterase 1 (TDP1): qHTS in cells in presence of CPT; also: nearly all actives have a fitted effect of over 55% in size", "conditions": "chicken DT40 Tdp1-/-;hTDP1 cells + 20 nM CPT, ATP luminescence, 48 h; series mostly up to 46.2 µM", "outline": "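Chicken DT40 Tdp1-/- cells stably complemented with human TDP1 were seeded at 400 cells/well in medium containing 20 nM camptothecin, exposed to pin-transferred compounds, and grown at 37 °C for at least 48 hr. Viability was read as ATP luminescence.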", "values": [
      {"smiles": "CNC(=O)C[C@@H](N)C(=O)N[C@@H](C(=O)N[C@@H]1C(=O)N2[C@@H]1SC(C)(C)[C@@H]2C(=O)O)c1ccc(O)cc1", "Potency": "inactive"},
      {"smiles": "CN(C(=O)c1cc2c(Cl)nc3ccccc3c2s1)c1cccc(C(F)(F)F)c1", "Potency": "inactive"},
      {"smiles": "COc1cccc(NC(=O)N(Cc2c[nH]c3ccccc23)C2CCCCCC2)c1", "Potency": "active: 11.6 µM"},
      {"smiles": "CN[C@@H]1CCc2[nH]c3ccc(C(N)=O)cc3c2C1", "Potency": "inactive"},
      {"smiles": "CC(=O)N1CCN(c2ccc(NC(=O)c3ccc4c(c3)OCCO4)cc2)CC1", "Potency": "inactive"},
      {"smiles": "O=C(Nc1ccc(S(=O)(=O)Nc2nccs2)cc1)c1cccc(S(=O)(=O)N2CCOCC2)c1", "Potency": "inactive"},
      {"smiles": "COc1ccccc1CNC(=O)C1CC(c2cccc([N+](=O)[O-])c2)=NO1", "note": "(stereo not drawn)", "Potency": "active: 16.4 µM"},
      {"smiles": "COc1ccc(/C=C/C(=O)NCC(c2ccc(F)cc2)N2CCOCC2)cc1OC", "note": "(stereo not drawn)", "Potency": "inactive"},
      {"smiles": "CC1=CC(C)(C)NC(=S)N1C(C)c1ccccc1", "note": "(stereo not drawn)", "Potency": "inconclusive [inhibitor, single point]"},
      {"smiles": "O=C(Cn1nc(-c2ccccc2)c2c(c1=O)CCCC2)Nc1ccc(F)c(Cl)c1", "Potency": "inactive"},
      {"smiles": "O=C(COC(=O)/C=C/c1cccs1)Nc1nc(-c2ccccc2)cs1", "Potency": "active: 16.4 µM"},
      {"smiles": "Cc1cc(C)nc(NC(=O)CSc2nc3ccccc3s2)n1", "Potency": "inactive"},
      {"smiles": "CC(=O)Cc1cc(O)c2ccccc2c1OC(=O)c1ccccc1", "Potency": "inconclusive [inhibitor, single point]"},
      {"smiles": "COc1ccc(NC(=O)N2CCCC(C(=O)NCc3ccccc3F)C2)cc1", "note": "(stereo not drawn)", "Potency": "inactive"},
      {"smiles": "Cc1ccnc(NC(=O)c2ccc([N+](=O)[O-])s2)c1", "Potency": "active: 16.4 µM"},
      {"smiles": "CCCCCCC[n+]1ccc(C)c2ccccc21", "Potency": "active: 0.447 µM"},
      {"smiles": "COc1ccc(NC(=O)C(=O)Nc2cccc3cccnc23)c(OC)c1", "Potency": "inactive"},
      {"smiles": "C=C1C=C(C(F)F)n2ncc(C(=O)N3CCN(c4ccccc4)CC3)c2N1", "Potency": "active: 11.2 µM"},
      {"smiles": "CSCCC(NC(=O)c1cccc(S(=O)(=O)N2CCOCC2)c1)C(=O)Nc1cccc(C)c1", "note": "(stereo not drawn)", "Potency": "inactive"},
      {"smiles": "CCOC(=O)CSc1nc2ccccc2c(=O)n1CC1CCCC1", "Potency": "active: 10.3 µM"},
      {"smiles": "CN(C(=O)c1cccc(NC(=O)Cc2ccc(NC(=O)C3CCCN(C(=O)CCc4ccccc4)C3)cc2)c1)C1CCCC1", "note": "(stereo not drawn)", "Potency": "inconclusive [inhibitor, single point]"},
      {"smiles": "Cc1ccccc1NS(=O)(=O)c1ccc2[nH]cc(C(=O)NC3CCCCC3)c(=O)c2c1", "Potency": "inconclusive [inhibitor, single point]"},
      {"smiles": "COc1ccccc1CNCCCCCCNCCCCCCCCNCCCCCCNCc1ccccc1OC", "Potency": "active: 13 µM"}
    ]}
  ]
}
